Laboratory results from PubChem BioAssay AID1346428 (National Center for Advancing Translational Sciences (NCATS), 2018).
Out of some 48,000 compounds screened, about 1,200 (2.5%) were called active. Another 2% or so got no clear call; they are omitted.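 How the source made its calls: active means activation of at least 60% and not above a set upper limit (about 1 call in 100 departs from these limits); inconclusive means activation of 40% to 60%, or above that upper limit; inactive means activation under 40%.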 Some of the results follow.

Molecular target: Probable G-protein coupled receptor 32 (Homo sapiens) (UniProt O75388)
Assay: qHTS for Agonists of Human Resolvin D1 Receptor DRV1; further: 0% is about no effect
Details: CHO-K1 GPR32 beta-arrestin PathHunter luminescence, 90 min; at 76.9 µM; active compounds read high; zero percent set by DMSO-only wells
Method in brief: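 Step 1: seed CHO-K1 GPR32 beta-arrestin cells, 2,500/well, overnight at 37 °C. Step 2: add compounds, 90 min at 37 °C. Step 3: detection reagent, 1 h ambient, then luminescence.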

Chain of UniProt O75388 (O75388 whole entry, looked up): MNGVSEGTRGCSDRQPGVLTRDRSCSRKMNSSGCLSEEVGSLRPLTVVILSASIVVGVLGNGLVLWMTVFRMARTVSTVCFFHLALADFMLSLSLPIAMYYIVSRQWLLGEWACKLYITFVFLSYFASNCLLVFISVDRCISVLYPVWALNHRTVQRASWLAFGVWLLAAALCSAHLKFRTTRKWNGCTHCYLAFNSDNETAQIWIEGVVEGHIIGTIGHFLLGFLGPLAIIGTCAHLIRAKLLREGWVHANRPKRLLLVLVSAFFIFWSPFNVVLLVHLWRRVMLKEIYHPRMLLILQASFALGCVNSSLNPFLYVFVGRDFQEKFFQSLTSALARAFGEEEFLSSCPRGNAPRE

SMILES | activation
COc1ccc(OCC(=O)NCc2ccc3c(c2)CCN3C(=O)c2ccc(F)cc2)cc1 | inactive: -37.4%
CCc1ccc(-c2nn(CC(=O)NCc3ccccc3)c3c2cnc2ccc(F)cc23)cc1 | inactive: 6.56%
O=C(NCc1ccc(F)cc1)c1cc(-c2ccc(Cl)cc2)n[nH]1 | inactive: 16.3%
O=C(Nc1cccnc1)c1cc(-c2cccc(Cl)c2)on1 | inactive: 3.84%
O=C(O)c1cccc(Nc2ncnc3scc(-c4ccccc4)c23)c1 | inactive: 19.3%
CCc1ccc(S(=O)(=O)c2nnn3c2nc(Nc2ccc(F)cc2)c2cc(Cl)ccc23)cc1 | inactive: -10.4%
CCC(C)NC(=O)CCSc1nc(-c2ccc(OC)cc2)cc(C(F)(F)F)n1 (centres undefined) | inactive: -27%
COc1ccc(NC(=O)c2cc(CN3CCCC3)on2)cc1Cl | inactive: 10.1%
Cc1ccc(C(=O)Nc2nnc(S(=O)(=O)N3CCc4ccccc43)s2)cc1 | inactive: 6%
Cc1ccccc1C(=O)Oc1c(Sc2ccccc2)c(C)nn1C(C)(C)C | inactive: -13.8%
COc1ccc(CC(=O)NCc2ccc3c(c2)CCN3C(=O)c2ccc(Cl)cc2)cc1 | inactive: -13.5%
CCc1ccc2oc(-c3cc(NC(=O)c4cccnc4)cc(C)c3O)nc2c1 | inactive: 15.5%
CCOc1ccc(NC(=O)c2cnc(Nc3ccccc3OC)c3ccccc23)cc1 | inactive: -4.3%
COc1ccc(CCNC(=O)Cn2ncc3c(=O)oc4ccccc4c32)c(OC)c1 | inactive: -2.24%
CCOc1ccc(NC(=O)c2oc3ccccc3c2NC(=O)c2cc(C)cc(C)c2)cc1 | inactive: 5.98%
CCC(=O)N1CCc2cc(Br)cc(S(=O)(=O)N3CCCC(C(=O)Nc4cccc(F)c4)C3)c21 (centres undefined) | inactive: 17.4%
CCOC(=O)CSc1nc2sc3c(c2c(=O)n1-c1ccccc1)CCC(C(C)(C)C)C3 (centres undefined) | inactive: 34.2%
Cc1cccc(Cc2c(C)nc3nc(SCC(=O)NCc4ccccc4)nn3c2C)c1 | inactive: 36.2%
CC(C)Oc1ccc(CNC(=O)c2cccc(NC(=O)N3CCSc4ncccc43)c2)cc1 | inactive: 15.2%
CCOc1ccc(CCNC(=O)CCSCc2ccc(Cl)cc2)cc1OCC | inactive: -20.4%
COc1cccc(CNC(=O)CN(c2ccc(C(C)C)cc2)S(=O)(=O)c2c(C)noc2C)c1 | inactive: 21.5%

SMILES | activation
O=C(Nc1cccc(Br)c1)N1CCC(CN2CCCCCC2)CC1 | inactive: -14.7%
Cn1c(=O)oc2cc(S(=O)(=O)N3CCC(C(=O)Nc4ccc(F)c(Cl)c4)CC3)ccc21 | inactive: 33.8%
Cc1cc(C)cc(Oc2c(C(F)(F)F)oc3cc(OCC(=O)NC4CCCCC4)ccc3c2=O)c1 | inactive: -1.07%
CCOC(=O)c1cc(-c2ccccc2)n(-c2cccc(C(=O)Nc3cc(OC)cc(OC)c3)c2)c1C | inactive: -22.2%
CCOC(=O)c1sc(NC(=O)c2cc3nc(-c4ccccc4)cc(C(F)(F)F)n3n2)c(C(=O)OCC)c1C | inactive: -22.4%
COc1cc(-c2nc(Cn3nnc(C(=O)Nc4ccc(C)cc4C)c3C)c(C)o2)cc(OC)c1OC | inactive: -9.47%
Cc1oc(-c2ccccc2F)nc1CS(=O)(=O)CC(=O)NCCc1ccc(Cl)cc1 | inactive: 44.1%
COc1cccc2cc(-c3nnc(Nc4c(F)cccc4F)s3)c(=O)oc12 | inactive: 5.06%
CSc1ncc(C(=O)N2CCN(c3cc(Cl)ccc3C)CC2)c(C)n1 | inactive: 6.07%
CCCN(C(=O)CCc1nc(-c2ccc(OC)cc2)no1)c1ccccc1F | inactive: 13.2%
COc1ccc(CC(=O)NCCc2csc3nc(-c4ccccc4F)nn23)cc1 | inactive: 42%
Cc1ccc(NC(=O)CN(C)S(=O)(=O)c2ccc3[nH]c4c(c3c2)CCCC4)c(Cl)c1 | inactive: 37.1%
COc1ccc(N2CCN(c3oc(-c4ccc(COc5cccc(C)c5)o4)nc3C#N)CC2)cc1 | inactive: -15.8%
O=C(CSc1nc2c([nH]c3ccccc32)c(=O)n1-c1ccccc1)Nc1ccc2c(c1)OCCO2 | inactive: -37.1%
COc1ccccc1C(=O)Nc1ccc(OCc2cc(=O)n3ccsc3n2)cc1 | inactive: -14.1%
Cc1cccc(NC(=O)c2sc3nc(N4CCOCC4)c4c(c3c2N)CC(C)(C)OC4)c1 | inactive: -13.9%
COc1ccc(NC(=O)Cn2ncc3c2-c2ccccc2OC3)cc1Cl | inactive: 35.3%
CCOc1ccc(CCNC(=O)c2ccc(-n3c(C)cc4c3CCC(C)C4)cc2)cc1OCC (centres undefined) | inactive: -11.3%
CC1=C(C(=O)Nc2ccc(C)cc2Cl)C2(CCCCCC2)OC1=O | inactive: -14.9%
CC(=O)N1c2ccc(S(=O)(=O)NCCC(=O)Nc3ccc(Br)c(C)c3)cc2CC1C (centres undefined) | active: 69.2%
CCC(=O)c1cc2c(cc1NC(=O)c1ccccc1F)OCCO2 | inactive: 0.206%

SMILES | activation
CCN(CC)c1sc(S(=O)(=O)c2ccccc2)nc1S(=O)(=O)c1ccc(C)cc1 | inactive: -27.4%
CCN(CCCNC(=O)c1cc2c(Cl)nc3ccccc3c2s1)Cc1ccccc1 | active: 95.3%
Cc1ccc(C)c2sc(N3CCN(C(=O)C(C)(C)C)CC3)nc12 | inactive: 29%
COc1ccc(N2CC(NC(=O)c3ccc(S(=O)(=O)N4CCOCC4)cc3)CC2=O)cc1OC (centres undefined) | inactive: -2.89%
CCN(CC)CCNC(=O)Nc1ccc2c(c1)N(Cc1ccccc1)C(=O)c1ccccc1S2 | inactive: -25.3%
CC(C)(C)c1ccc(-c2nc(SCC(=O)Nc3ccc(Cl)cc3)[nH]c(=O)c2C#N)cc1 | inactive: 2.51%
CC(=O)NCCn1c(SCC(=O)Nc2ccc(C)cc2)nc2ccccc2c1=O | inactive: 13.9%
CCCCOc1cccc(C(=O)N(Cc2cccs2)c2ccc(OC)cc2)c1 | inactive: -30.9%
CCCCNC(=O)C1CCC(CNS(=O)(=O)c2ccc(Cl)cc2)CC1 (centres undefined) | inactive: -18.4%
CCc1ccc(S(=O)(=O)N(C(=O)Oc2ccccc2)c2ccc3oc(C)c(C(=O)OC)c3c2)cc1 | inactive: -13.1%
COc1cccc(-n2c(-c3cccc(F)c3)nc3c(cnn3-c3ccc(C)cc3)c2=O)c1 | inactive: -3.94%
Cc1c(-c2ccc(Cl)cc2)c(=O)oc2ccc(OC(=O)N3CCOCC3)cc12 | inactive: 4.65%
CCN(Cc1ccccc1)c1ncnc2c1nnn2C | inactive: -13.1%
Cc1ccccc1CN1C(=O)c2ccccc2Sc2ccc(C(=O)NC3CCCC3)cc21 | inactive: -12.6%
O=S(=O)(NCc1ccc(Cl)cc1)c1ccc(-c2cnc(C3CC3)o2)cc1 | inactive: 9.71%
COc1ccc(OC)c(/C=C/C(=O)Nc2ccc(C(=O)OCCC(C)C)cc2)c1 | inactive: -10.2%
Cc1ccc(Cl)cc1-n1ncc2c(N3CCCCCC3)ncnc21 | inactive: 21.5%
CCCCN(CCCC)C(=O)C1CCN(S(=O)(=O)c2cccc3nsnc23)CC1 | inactive: 0.802%
COc1ccccc1CNC(=O)CC(c1ccc(OC)c(OC)c1)N1Cc2ccccc2C1=O (centres undefined) | inactive: -0.0914%
CCc1cnc2c(c1SCC(=O)c1ccc(OC)cc1)c(=O)n(C)c(=O)n2C | inactive: -5.26%
CCCC(=O)Nc1cc2nn(-c3ccc(OC)cc3)nc2cc1C | inactive: 12.9%

SMILES | activation
CCOc1ccc(NC(=O)NCCN2CCN(c3cc(Cl)ccc3C)CC2)cc1 | active: 73%
O=C(NCCc1ccccc1)c1c[nH]c2ccc(S(=O)(=O)Nc3ccc(F)cc3F)cc2c1=O | active: 100%
CCOC(=O)c1c(Nc2ccc(C)c(C)c2)nnc(-c2ccccc2)c1-c1ccccc1 | inactive: 6.53%
Cc1ccc(C)c(OCC(=O)Nc2sc3c(c2C#N)CCCC3)c1C | inactive: 6.99%
CCC1CCCCN1CCCNC(=O)c1ccc2c(c1)c(C)c(C)n2CC (centres undefined) | inactive: -9.91%
Cc1cc(C)c(NC(=O)Cn2c(=O)n(CCC(C)C)c(=O)c3cccnc32)c(C)c1 | inactive: 12.2%
COc1ccc(-c2nn(C)c3sc(C(=O)NCCN(C)C)cc23)cc1OC | inactive: 27.6%
COc1ccc(CNC(=O)CN2N=C(c3ccc(Cl)cc3)CCC2=O)cc1 | inactive: -15%
COc1cccc(NC(=O)C2CCCN(c3ncnc4onc(-c5ccc(F)cc5)c34)C2)c1 (centres undefined) | inactive: -25.3%
CCc1ccc(C(=O)c2cn(CC(=O)NCCc3ccccc3)c3nc(C)ccc3c2=O)cc1 | inactive: 46.9%
COc1ccc(C(=O)CC2(O)C(=O)N(Cc3ccccc3)c3ccc(Br)cc32)cc1 (centres undefined) | inactive: -5.81%
COc1ccc(Cn2c(SCc3ccc(C(=O)NCc4ccc(C)cc4)cc3)nc3cccnc32)cc1 | inactive: 8.22%
O=C(NCCc1ccccc1)c1ccc2c(c1)N(Cc1ccc(Cl)cc1)C(=O)c1ccccc1S2(=O)=O | inactive: -41.4%
Cc1ccc(N2CC(NC(=O)CCCc3ccccc3)CC2=O)cc1 (centres undefined) | inactive: -2.16%
O=C(NCCSc1c[nH]c2ccccc12)c1ccc(Cl)cc1 | inactive: -17.3%
Cc1ccc(C2=Nc3ccccc3N=C(c3ccc(F)cc3)C2)c(O)c1 | inactive: -2.46%
CCN(c1ccccc1C)S(=O)(=O)c1nnc(NC(=O)c2ccc(OC)c(OC)c2)s1 | inactive: 6.34%
CCc1nc(SC)ncc1C(=O)NCc1cccc(Br)c1 | inactive: -3.53%
Cc1cc(O)c2c(C)c(CC(=O)NCc3ccccc3Cl)c(=O)oc2c1 | inactive: -15.3%
COc1ccc(CNC(=O)c2ccc(CN3C(=O)C(C)=C(c4ccc(C)cc4)S3(=O)=O)cc2)cc1 | inactive: -11.7%
O=C(Cn1nc(Cc2cccnc2)c2ccccc2c1=O)N1CCN(c2ccccc2F)CC1 | inactive: -67.7%
